According to the supplement of paper PMC12632987:
Whole data set: some 4,500 sequences, median “median log2 fold change of GCK-ALFA target abundance (FLAG IP / Myc IP barcode read proportion)” near 0.078, cut for the lowest 2% near -0.6. The list shows a part of the results.

B1: GBRAP_128_3220 (protein)
chain: MAEEAEEKVRELLEKIKEADEEERKKLAKELAELVASQPVEVAEAMAKVVEELAPELSEEDLEILMEAFEEAARARDDEVSLVLAEIAIIFGEQILELEE
B2: GBRAP_52_6015 (protein)
chain: MREELRAFLLEVLALVRAGKEEEARALLRERVAALDEEELELLIEELAELARAAAPEDQEAVWRLAEMLAEELEEAGVDEALADDLEARVAAALYEAEQR
B3: GBRAP_195_5413 (protein)
chain: RKVVAEVLTVTAEDTPEQILAKIRAIVERNKAESNGDLVLVVRRDPSVPASVIRDAVAEAQAAFPEIKITVTIFDDISLPLETAERFAAMEAANLAEELE
B4: GBRAP_160_4336 (protein)
chain: SERTEKLKKFIREEFEEAKKLIEGQSIEQRKVIIEGTFGVIFMELSEDPNVSDELLDKVIEIEDELLETIDENPDLSEEEIKELIDEAEKKIIEALDKSE
B5: GBRAP_52_6357 (protein)
chain: KLEEALALLERALEAMLAGREDEARAILREIVETYDDETILAAFERLAEKILGKSVEEAEAFLDLALLLADVMDELGRDEAVGDEIEAIAAKAYMTVLEK
B6: GBRAP_78_6621 (protein)
chain: ELEELLEKAIEKLNKAAKLALKLKTPKADELLGELVDAMTDLEESEEEGGDLEKLEEALKHIEKAIKLAKELGNEELVKELEEAKKLVEKAIELKKKELE
B7: GBRAP_184_5147 (protein)
chain: MTLKAAIEAETVEEAIKKAKEVFKEAKAKGADLTLAIFAEGFSVEEVKELAEKVKKLADEYGLTNATIILEVEANEEEADKVIKAADEAGVRVVVALLEE
B8: GBRAP_128_3439 (protein)
chain: SQEELLAKALALLDEIVASDVETAAKLAKELAELLGQLDEESREKVVKYFEEKAKKLTEEKLEAISDALREQVPKLDPLTANALNEMMVELGERILELEE

Each binder was assayed against GABARAP, O95166 (assay: median log2 fold change of GCK-ALFA target abundance (FLAG IP / Myc IP barcode read proportion) (log2 ratio); each designed protein is fused to an ALFA-tag nanobody in HEK293 cells to bring the named protein to FLAG-tagged glucokinase (GCK); Myc marks an untargeted standard; higher = target protein stabilised (more abundant)). Conditions: target protein: 3xFLAG-MCP-GCK-ALFA reporter; HEK293 landing pad (RPLP).
Sequence of GABARAP, O95166 (O95166 whole entry, the tested form may be a part): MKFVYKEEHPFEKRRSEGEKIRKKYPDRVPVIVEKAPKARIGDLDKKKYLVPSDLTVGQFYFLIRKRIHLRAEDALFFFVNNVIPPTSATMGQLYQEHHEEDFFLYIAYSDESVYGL
In short: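 The readout is target abundance, the per-binder median log2 ratio of FLAG to Myc barcode read proportions. It came from HEK293 landing-pad cells carrying a recombined ALFA-nanobody-fused binder library, induced with 2 μg mL^−1 doxycycline and transfected with a plasmid for a FLAG-tagged target and a Myc-tagged standard. After 48 h, lysates were immunoprecipitated with anti-FLAG and anti-Myc, and circular RNA barcodes were reverse transcribed, amplified and sequenced. Each barcode needed a proportion of at least 10^−7 in both replicates and each binder at least 3 barcodes per replicate, a pseudocount of 10^−6 was added, and the replicates were pooled.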
With B1 the “median log2 fold change” value was 0.0875. In the case of B2, the “median log2 fold change” value is reported as -0.209. B3 was tested, and the “median log2 fold change” value was 0.0958. For B4, the “median log2 fold change” value was -0.0857. With B5 the “median log2 fold change” value was -0.492. In the case of B6, the “median log2 fold change” value is reported as 0.125. For B7, the “median log2 fold change” value was -0.0809. For B8, the “median log2 fold change” value was 0.219.
